In all, about 46,000 compounds went through this assay and about 60 (0.1%) were called active. About 3% were inconclusive and are not listed. Calls follow the shape of the dose curve; as a rule, active = well fitted inhibition curve with a large enough effect; inconclusive = small, poorly fitted or top-dose-only effect; inactive = no such curve, though single readings can be large or run the other way. Some of the results follow.
Test: Primary qHTS assay for Inhibitors of ovarian cancer metastasis using an organotypic tumor microenvironment (TME) model. Also: nearly all actives have a fitted effect of over 65% in size.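 As to activity change, negative = inhibition: plate controls were DMSO wells for no effect and tomatine positive control wells for full effect.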
Conditions: SKOV3ip1-GFP adhesion/invasion on 3D omental model, fluorescence; series mostly up to 45.8 µM; activity change, negative = inhibition: at the top concentration
Method in brief: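 qHTS, 4-pt dose (0.36-46 umol/L); SKOV3ip1-GFP, 1,200 cells/well, no FBS; primary omental fibroblast/mesothelial co-culture 48 h pre-grown; 2 h RT + 16 h 37 C; PBS wash, 4% PFA; GFP count 488/509 nm.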

Activity change, negative = inhibition, inactive:
CCc1ccccc1NS(=O)(=O)c1cc(Br)cc2c1N(C(=O)C1CC1)CC2 -1.85%
CCN(CC)c1ccc(NC(=O)CN2C(=O)c3cccnc3Oc3ccc(Cl)cc32)c(C)c1 8.59%
O=C(NCc1ccccc1)c1ccc2c(c1)nc1n2CCOC1 -4.64%
CC(Nc1oc(-c2ccc(COc3ccc(Cl)cc3)o2)nc1C#N)c1ccccc1 (configuration not stated) 8.18%
CCN(CC)CCCNC(=O)CN1C(=O)COc2ccc(S(=O)(=O)N3CCC(C)CC3)cc21 58.5%
CCOC(=O)c1ccc(NC(=O)c2cc3c([nH]c2=O)CC(c2ccccc2)CC3=O)cc1 (configuration not stated) 8.98%
COc1ccc(C(=O)Nc2nc3n(n2)C(c2ccc(F)cc2)C=C(c2ccc(Cl)cc2)N3)cc1 (configuration not stated) -9.37%
CCn1c(=O)c2sccc2n2c(CCCC(=O)Nc3ccc(OC)c(OC)c3)nnc12 -8.84%
Cc1cc(C)n(C(C)CC(=O)Nc2ccc(C)c(F)c2)n1 (configuration not stated) -29.1%
Cc1ccccc1Cn1c(SCc2ccc(C(=O)NCCc3ccccc3)cc2)nc2ccncc21 -2.11%
CSc1ncc(Cl)c(C(=O)N(Cc2ccc(C(C)C)cc2)C2CCS(=O)(=O)C2)n1 (configuration not stated) -9.61%
COc1cccc(-c2n[nH]c3c2C(c2ccccn2)N(C)C3=O)c1 (configuration not stated) -2.52%
COc1ccc(-n2cc(-c3ccc4c(c3)OCO4)n(CC(=O)Nc3cccc(C)c3)c2=O)cc1 1.19%
CCCCC1CCC(CCCC(C)CCC(=O)O)CC1 (configuration not stated) 7.65%
CCC1CN(C(=O)N2CCC(C(=O)NCc3ccco3)CC2)c2ccccc2O1 (configuration not stated) -0.919%
Cc1ccc(-n2c(SCC(=O)Nc3c(C)cccc3C)nc(O)c(C)c2=O)cc1 -2%
COCCNC(=O)C(=O)NCC(c1cccnc1)N1CCN(c2ccccc2)CC1 (configuration not stated) 9.76%
O=C(Cc1ccc(Cl)cc1)Nc1ccc2nn(-c3ccccc3)nc2c1 2.82%
N#CC(=Cc1ccc(O)c(O)c1)C(=O)NCc1ccccc1 -5.02%
Cc1cc(C)c(CN2C(=O)c3ccccc3S(=O)(=O)c3ccc(C(=O)OCC4CCCO4)cc32)c(C)c1 (configuration not stated) -1.98%
Cc1ccc(-n2ncc3c(=O)n(Cc4ccccc4C)cnc32)cc1C -4.79%
CCOc1ccccc1NC(=O)CN1C(=O)C2(SCC(=O)N2c2ccc(C)cc2)c2ccccc21 (configuration not stated) 11.4%
CC(=O)c1cccc(NC(=O)N2CCC(CN3CCCCC3)CC2)c1 -10.3%
CCOc1ccc2c(c1)c(=O)c(C(=O)c1ccc(C)cc1)cn2Cc1ccccc1OC -2.1%
C[C@H]1O[C@H](O[C@H]2[C@H](O)[C@@H](O)[C@@H](O[C@H]3[C@H](O)[C@@H](O)C(O)O[C@H]3CO)O[C@H]2CO)[C@H](O)[C@@H](O)[C@H]1N[C@H]1C=C(CO)[C@@H](O)[C@H](O)[C@@H]1O (some centres not stated) -10.3%
CS(=O)(=O)N1CCc2cc(C(=O)Nc3ccc(S(N)(=O)=O)cc3)ccc21 -8.17%
COc1cc(Cl)c(NC(=O)C(NS(=O)(=O)c2cccs2)C(C)C)c(OC)c1 (configuration not stated) 6.82%
CC(C)(C)OC(=O)N1CCC(c2c(C(=O)N3CCCCC3)cnn2-c2ccc(F)cc2F)CC1 2.86%
Cc1ccc(-n2ncc(C(=O)NCCCN3CCN(C)CC3)c2C2CCN(C(=O)OC(C)(C)C)CC2)c(C)c1 -27%
Cc1cccc(C(=O)OCc2cc(=O)n3nc(-c4cccs4)sc3n2)c1 -1.07%
CCCSc1nnc2n(-c3cccc(C)c3)c(=O)c3c4c(sc3n12)CCCC4 3.93%
CNS(=O)(=O)c1cn(CC(=O)N2CCN(c3ccccc3OC)CC2)cc1S(=O)(=O)NC -8.94%
Cc1ccc(C(=O)CC2(O)C(=O)N(Cc3ccccc3)c3ccccc32)c(C)c1 (configuration not stated) 6.41%
Cc1ccc2c(CC(=O)N(Cc3cccc(Cl)c3)C3CCS(=O)(=O)C3)coc2c1 (configuration not stated) -4.99%
CCOC(=O)C1CCCN(C(=O)c2ccc(NC(=O)c3nsc4ccccc34)cc2)C1 (configuration not stated) 6.65%
COc1ccc(Cl)cc1NC(=O)Cn1cnc2sc(C)c(S(=O)(=O)N3CCN(c4ccccc4OC)CC3)c2c1=O 0.162%
COc1cccc(N2CCN(Cc3cc(=O)oc4cc(C)ccc34)CC2)c1 -8.45%
Cc1ccc2c(c1)C(c1ccc(F)cc1)N(C(=O)c1cccc(C(F)(F)F)c1)CC(=O)N2 (configuration not stated) -4.44%
Cc1ccc(-n2nnnc2CNC(=O)c2ccccc2C)cc1C 21.2%
CN(C)c1ccc(CNC(=O)Cn2ccc3cc(S(=O)(=O)N4CCCCCC4)ccc32)cc1 -5.86%
COc1ccc(-c2nc(Cn3c(=O)cc(C)c4c(C)nn(-c5ccccc5)c43)c(C)o2)c(OC)c1 0.0189%
Cc1cc(C)cc(-n2ccnc2SCC(=O)Nc2nc3ccc(C)cc3s2)c1 -15.2%
CC1(COc2ccc3c(c2)ncn3-c2ccc3cccc(N4CCC(N)CC4)c3n2)COC1 -3.65%
Cc1c2cnn(CC(=O)N3CCN(c4ccc(F)cc4)CC3)c(=O)c2c(C)n1Cc1ccccc1F 4.99%
CCOC(=O)c1c(C)[nH]c(CCC(=O)NCCCN2CCN(c3ccccc3F)CC2)c1C 14.3%
O=C(Nc1nnc(S(=O)(=O)N2CCc3ccccc32)s1)c1ccccc1Cl -0.162%
COc1cc(Cl)c(C)cc1NC(=O)c1cnn(-c2ccc(C)cc2)c1-n1cccc1 -0.811%
CCOc1ccc(NC(=O)CCS(=O)(=O)c2ccc3nc(C)sc3c2)cc1 1.06%
c1coc(-c2nc3ccccn3c2Nc2ccc3c(c2)OCCO3)c1 0.792%
COc1ccc(-c2cn3c(n2)sc2cc(C(=O)Nc4ccccc4F)ccc23)cc1 -0.907%
CCn1cc(S(=O)(=O)c2cccc(C)c2)c(=O)c2cc(F)c(N3CCCCC3C)cc21 (configuration not stated) -2.08%
Cc1ccc(Cn2c(SCc3ccc(C(=O)NCCc4ccccc4)cc3)nc3ccncc32)cc1 0.224%
COc1ccc(NC(=O)/C(C#N)=C/c2ccc(C)o2)cc1 0.347%
CC(C)(C)OC(=O)N1CCC(c2c(C(=O)Nc3ccc4c(c3)OCO4)cnn2-c2ccc(F)cc2F)CC1 21.4%
Cc1ccc(CNC(=O)C(=O)NCC(c2cccs2)S(=O)(=O)c2cccs2)cc1 (configuration not stated) 4.7%
CCc1ccc2occ(CC(=O)Nc3c(C(=O)Nc4ccc(Cl)cc4)oc4ccccc34)c2c1 -7.07%
CN(C)c1ccc(CNc2nc(-c3ccco3)nn2S(C)(=O)=O)cc1 4.79%
CCOC(=O)c1ccc(NC(=O)c2cnc(N3CCCC3)nc2C)cc1 1.59%
CCSc1nc2c([nH]c3ccccc32)c(=O)n1-c1ccc(OC)cc1 -8.6%
CCOC(=O)c1[nH]c2c(c1Cc1ccccc1)C(=O)CC(c1ccc(OC)cc1)C2 (configuration not stated) -6.58%
Cc1cccc(NC(=O)CCNS(=O)(=O)c2ccc3c(c2)CCCC(=O)N3)c1C -24.9%
O=C(O)CCCC(=O)N1CCc2cc(S(=O)(=O)NCc3ccccc3)ccc21 6.46%
CCc1ccc2nc(N(Cc3cccnc3)C(=O)c3cccs3)sc2c1 -8.07%
COCCn1c(SCC(=O)c2ccccc2)nc2cc(C(=O)NC3CCCC3)ccc2c1=O -10.7%
CCCC(=O)Nc1ccc(NC(=O)c2sc3ccccc3c2Cl)cc1 0.314%
COc1ccc(C(=O)N2CCN(C(=O)COc3ccc(Br)cc3)CC2)cc1OC 5.15%
COc1ccc(NC(=O)CN(c2cccc(C)c2C)S(=O)(=O)c2ccccc2)cc1OC 13.8%
CCOC(=O)CSC1=Nc2ccccc2C2=NC(CCC(=O)NCc3ccccc3)C(=O)N12 (configuration not stated) -19.5%
CC(=O)c1cccc(NC(=O)c2noc3c2CC(C)CC3)c1 (configuration not stated) 2.44%
O=C(CSc1nnc(-c2cccs2)o1)Oc1ccc(Cl)cc1 10.2%

outcome, inactive:
COCCNC(=O)CSc1nnc2[nH]c(=O)cc(C)n12
O=C(CC1N=C2c3ccccc3N=C(SCC(=O)Nc3ccc(F)cc3)N2C1=O)NCc1ccc2c(c1)OCO2 (configuration not stated)
Cc1cccc(NC(=O)Cn2cc(S(=O)(=O)Cc3ccccc3Cl)c3ccccc32)c1
Cc1ccccc1C(c1c(C)n(C)n(-c2ccccc2)c1=O)c1c(C)n(C)n(-c2ccccc2)c1=O
CC(C)c1ccc(NC(=O)Cn2c(=O)n(Cc3nc(-c4ccccc4)no3)c(=O)c3cc4c(cc32)OCO4)cc1
CCCN(Cc1cccs1)C(=O)Nc1ccc(F)c(Cl)c1
CCc1ccc(NC(=O)c2ccc(F)c(S(=O)(=O)NCCc3ccc(OC)c(OC)c3)c2)cc1
Cn1c(Oc2ccccc2)nc2c1c(=O)n(Cc1ccc(Cl)cc1Cl)c(=O)n2C
Cc1ccc(C)c(NC(=O)Cn2c(=O)n(Cc3ccc4c(c3)OCO4)c(=O)c3ccccc32)c1
COC(=O)c1ccccc1NC(=O)Cn1c(=O)cc(C)c2c(C)nn(-c3cccc(Cl)c3C)c21
O=C(CCn1cnc2onc(-c3ccc(F)cc3)c2c1=O)N1CCN(c2ccccc2F)CC1
N#Cc1cccc(NC(=O)CCNS(=O)(=O)c2ccc3c(c2)CCN3C(=O)C2CC2)c1
COc1ccc(-n2c(SCC(=O)N3CCCc4ccccc43)nc3c([nH]c4ccccc43)c2=O)cc1
Cc1nc(-c2ccc(C)c(N3CCN(C(=O)Nc4ccc(Br)cc4)CC3)c2)no1
Cc1cc(-c2ccc(C)c(S(=O)(=O)N(Cc3cccs3)C(C)C)c2)on1
CN(C)CCNC(=O)c1ccc2nc(CCc3ccccc3)oc2c1
CCc1ccc(NC(=O)CSC2=Nc3ccccc3C3=NC(CC(=O)NCc4ccc5c(c4)OCO5)C(=O)N23)cc1 (configuration not stated)
Cc1ccccc1Cn1c(=O)n(CCCCC(=O)NCCc2ccccc2)c(=O)c2ccccc21
CN(C)c1ccc(NC(=O)Cn2c(SCc3ccc(F)cc3)nc3cccnc32)cc1
CC1CCCN(c2ncnc3c2nc2n3CCCCC2)C1 (configuration not stated)
CCCCN(C)CCCNC(=O)Cn1nc(CC)n2c(cc3sc(C)cc32)c1=O
Cc1cc2c(cc1C)C(c1cccc(OC(C)C)c1)CC(=O)N2 (configuration not stated)
